Measured values as given in the supplement of paper PMC10126150.
Values marked as one replicate rest on one cluster of the flow cell; about a third of the high ones do not repeat.

test system: ATP; test: switch fluorescence ratio, 500 uM ATP over buffer (Cy3 cluster intensity, sum of 5 cycles each) (fold (ratio)); higher = stronger signal-on switching upon ATP binding; sequences stand for … in TCGTCGGCAGCGTCAGATGTGTATAAGAGACAGTTTTTTTTTTTTTTTTTTTTTTTTT…TC; details: aptamer strand: ATP DNA aptamer (quencher-CACCTGGGGGAGTATTGCGGAGGAAGG + anchor), 100 nM annealed; ATP concentration: 500 uM; one replicate
Method in brief: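 The fluorescence ratio divides summed target-cycle Cy3 intensity by summed buffer-cycle Cy3 intensity for each cluster and is averaged per switch-domain sequence. Cy3-labelled switching-strand clusters on a modified Illumina MiSeq flow-cell were annealed to 100 nM quencher-labelled ATP aptamer, then imaged in selection buffer and again after 15 min with 500 uM ATP at 22 °C. Five such cycles were run, with NaOH stripping and re-annealing between them, and clusters outside 100-1000 RFU were excluded.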
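Also: ATP exposure 15 min at 22 °C before imaging.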

| Sequence | switch fluorescence ratio |
| --- | --- |
| TTGAGCGAAG | 1.01 |
| TTGAGCTTTC | 1.06 |
| TTGAGGAACC | 0.968 |
| TTGAGGACTT | 1.01 |
| TTGAGGATTA | 0.963 |
| TTGAGGGGCC | 0.988 |
| TTGAGGGTCT | 1 |
| TTGAGGTCTA | 0.983 |
| TTGATATAAA | 1.01 |
| TTGATGTCAT | 0.989 |
| TTGATGTGAT | 1 |
| TTGATTATGG | 0.992 |
| TTGATTGGT | 0.996 |
| TTGCAAACGA | 1.14 |
| TTGCAACTCA | 1.03 |
| TTGCACATTA | 1.04 |
| TTGCAGAGTG | 1.02 |
| TTGCAGGGCG | 1.29 |
| TTGCCAAGCG | 0.991 |
| TTGCCAATAG | 1.07 |
| TTGCCATGCT | 1.01 |
| TTGCCATTGC | 0.977 |
| TTGCCGTACG | 1.04 |
| TTGCCTGT | 1.06 |
| TTGCGCAAA | 1.02 |
| TTGCGCGAGG | 1.02 |

| Sequence | switch fluorescence ratio |
| --- | --- |
| TTGCGCTATG | 1.01 |
| TTGCGGAACC | 0.983 |
| TTGCGGCTA | 1.04 |
| TTGCGGGATA | 4.1 |
| TTGCGGTCGA | 1.01 |
| TTGCTACCC | 1.13 |
| TTGCTAGGTA | 1.03 |
| TTGCTTAGTG | 0.995 |
| TTGCTTGTT | 1.03 |
| TTGCTTTGAT | 1.1 |
| TTGGAAATAG | 1.02 |
| TTGGAACCGC | 1.21 |
| TTGGACGTCT | 0.947 |
| TTGGAGAATC | 1 |
| TTGGAGCTGG | 1.04 |
| TTGGATATA | 1.05 |
| TTGGATCAGG | 0.991 |
| TTGGATGGT | 0.976 |
| TTGGATTTGT | 1.01 |
| TTGGCAAAGT | 0.992 |
| TTGGCAATGG | 1.52 |
| TTGGCACTCC | 1.01 |
| TTGGCCAGAC | 0.998 |
| TTGGCCAGGA | 1.01 |
| TTGGCCATTA | 0.987 |
| TTGGCCCCTG | 0.982 |

| Sequence | switch fluorescence ratio |
| --- | --- |
| TTGGCCGGTG | 1.04 |
| TTGGCCTTCA | 1.32 |
| TTGGCGATGC | 1.73 |
| TTGGCGCGAA | 1.06 |
| TTGGCGGCTG | 1.02 |
| TTGGCTATAG | 1 |
| TTGGCTCCCT | 1.04 |
| TTGGCTGGGA | 1 |
| TTGGCTTTAC | 1.16 |
| TTGGGAAAC | 0.992 |
| TTGGGAAGAG | 1.01 |
| TTGGGAATGG | 2.4 |
| TTGGGACGCG | 1.11 |
| TTGGGATCCA | 1.03 |
| TTGGGCAGAT | 1.09 |
| TTGGGCCAAA | 1.01 |
| TTGGGCCTAG | 0.965 |
| TTGGGCGGTC | 1.03 |
| TTGGGCTATG | 1 |
| TTGGGCTGC | 1.38 |
| TTGGGTAAAG | 0.988 |
| TTGGGTCCCT | 1 |
| TTGGGTCGCT | 0.997 |
| TTGGGTTGCC | 0.977 |
| TTGGGTTGTC | 0.981 |
| TTGGTAAGCC | 0.937 |

| Sequence | switch fluorescence ratio |
| --- | --- |
| TTGGTAGAA | 1 |
| TTGGTAGCAG | 1 |
| TTGGTATCCG | 1.05 |
| TTGGTCCTAA | 1.03 |
| TTGGTCTCAC | 0.985 |
| TTGGTGGTCA | 1.04 |
| TTGGTTAGTG | 0.974 |
| TTGGTTTTGG | 0.979 |
| TTGTAAAGAC | 1.04 |
| TTGTACAGCA | 1.01 |
| TTGTAGAACA | 1.01 |
| TTGTAGGTT | 1 |
| TTGTATACT | 1.03 |
| TTGTATGGGC | 0.991 |
| TTGTATTGAA | 0.963 |
| TTGTCAAACA | 1.02 |
| TTGTCACACA | 0.925 |
| TTGTCACTGG | 1.02 |
| TTGTCATGCT | 0.989 |
| TTGTCATGTT | 0.977 |
| TTGTCGAAAC | 1.03 |
| TTGTCGATTT | 1.08 |
| TTGTGAACTG | 1.12 |
| TTGTGACACA | 1.02 |
| TTGTGACGAG | 1.04 |
| TTGTGACGTC | 1.03 |

| Sequence | switch fluorescence ratio |
| --- | --- |
| TTGTGACTTA | 0.989 |
| TTGTGATGCT | 1.04 |
| TTGTGATTGG | 0.985 |
| TTGTGCCTAG | 1.03 |
| TTGTGCGATC | 1.14 |
| TTGTGGAGAC | 1.04 |
| TTGTGGTGGC | 0.952 |
| TTGTGTACGC | 1.02 |
| TTGTGTAGAC | 1.02 |
| TTGTGTGCCT | 1.04 |
| TTGTTAATGC | 1.22 |
| TTGTTCCATG | 0.992 |
| TTGTTCTTTC | 1.01 |
| TTGTTGACGT | 1.07 |
| TTGTTGCCCA | 1.04 |
| TTGTTGGGT | 1 |
| TTGTTGTACC | 0.982 |
| TTGTTTCTG | 0.958 |
| TTGTTTGGCG | 0.988 |
| TTGTTTGGTC | 0.958 |
| TTGTTTTTA | 0.992 |
| TTTAACCTCG | 1.02 |
| TTTAACGCA | 1.09 |
| TTTAAGAGTT | 1.04 |
| TTTACAAGCA | 1.11 |
| TTTACACCAT | 1.05 |

| Sequence | switch fluorescence ratio |
| --- | --- |
| TTTACAGAAT | 1.02 |
| TTTACATCGT | 0.987 |
| TTTACCACGT | 0.998 |
| TTTACCTCG | 1.15 |
| TTTACGGT | 1.02 |
| TTTACGTTAT | 1.34 |
| TTTACTATGC | 1.06 |
| TTTACTCAAT | 1.87 |
| TTTACTCCGG | 1.57 |
| TTTACTGCAA | 1.07 |
| TTTACTTGT | 1.01 |
| TTTAGAAGAG | 1.03 |
| TTTAGAATT | 1.05 |
| TTTAGACATC | 1.01 |
| TTTAGCCCG | 1.05 |
| TTTAGCCCGT | 0.943 |
| TTTAGCGAAA | 0.977 |
| TTTAGTACTA | 0.957 |
| TTTAGTCGGC | 0.957 |
| TTTAGTGCAC | 1.03 |
| TTTAGTTCTT | 1.01 |
| TTTATAAATC | 0.954 |
| TTTATAGAC | 0.979 |
| TTTATAGCAA | 1.79 |
| TTTATCCAA | 1.04 |
| TTTATCCGGC | 1.03 |

| Sequence | switch fluorescence ratio |
| --- | --- |
| TTTATGACA | 1.04 |
| TTTATGACCG | 1.03 |
| TTTATGGAAC | 0.977 |
| TTTATTGTA | 0.945 |
| TTTATTGTCT | 1.04 |
| TTTATTTATC | 1.01 |
| TTTCAAACAT | 1.05 |
| TTTCAAATTT | 0.957 |
| TTTCAAGCTG | 1.09 |
| TTTCACCAGG | 2.99 |
| TTTCACTGAT | 1.02 |
| TTTCAGCAGT | 2.55 |
| TTTCAGCTAC | 2.61 |
| TTTCAGGCGG | 1.11 |
| TTTCCAAGAC | 1.7 |
| TTTCCACCCA | 1.06 |
| TTTCCCGGGA | 1.02 |
| TTTCCCTGCC | 1.4 |
| TTTCCGCCCT | 1.02 |
| TTTCCGCGTT | 1.06 |
| TTTCCGGTG | 1.46 |
| TTTCCGTGCA | 0.971 |
| TTTCCTAGTC | 1.06 |
| TTTCCTATTC | 1.03 |
| TTTCGATGGA | 0.982 |
| TTTCGCGTTG | 1 |

| Sequence | switch fluorescence ratio |
| --- | --- |
| TTTCGCTGCA | 1.02 |
| TTTCGCTTAG | 1.04 |
| TTTCGGACGG | 1.02 |
| TTTCGGTGGT | 0.891 |
| TTTCGTAGTA | 0.993 |
| TTTCGTGCCC | 1.06 |
| TTTCGTGCTG | 1.09 |
| TTTCGTTATC | 1.02 |
| TTTCTATGTT | 0.996 |
| TTTCTCAAGG | 0.968 |
| TTTCTCCCGG | 1.17 |
| TTTCTCCGAC | 4.82 |
| TTTCTGCT | 0.996 |
| TTTCTGGGCA | 0.974 |
| TTTCTGGGT | 1.02 |
| TTTGAAATCG | 1.03 |
| TTTGACGCTT | 1.11 |
| TTTGACGGAG | 0.973 |
| TTTGAGAAAA | 0.966 |
